# Reference: PubChem BioAssay AID488969 (Vanderbilt High Throughput Screening Facility, 2010)
# Whole data set: some 110,000 compounds, median “z-score” near -0.1, cut for the highest 2% near 2. The list shows a part of the results.
# Target: Metabotropic glutamate receptor 8 (Rattus norvegicus) (UniProt P70579)
# Test: mGluR8 Gi/Go-coupled signaling modulation – cell-based, rat, thallium flux, HTS, primary screen (AID 488969)
# Conditions: HEK293 rat mGluR8, GIRK (G protein-gated inwardly rectifying potassium channel) thallium flux, FluoZin2; at 10 µM; stronger effect = higher value; submaximal glutamate (EC20) added with thallium
# Chain of UniProt P70579 (P70579 whole entry, looked up): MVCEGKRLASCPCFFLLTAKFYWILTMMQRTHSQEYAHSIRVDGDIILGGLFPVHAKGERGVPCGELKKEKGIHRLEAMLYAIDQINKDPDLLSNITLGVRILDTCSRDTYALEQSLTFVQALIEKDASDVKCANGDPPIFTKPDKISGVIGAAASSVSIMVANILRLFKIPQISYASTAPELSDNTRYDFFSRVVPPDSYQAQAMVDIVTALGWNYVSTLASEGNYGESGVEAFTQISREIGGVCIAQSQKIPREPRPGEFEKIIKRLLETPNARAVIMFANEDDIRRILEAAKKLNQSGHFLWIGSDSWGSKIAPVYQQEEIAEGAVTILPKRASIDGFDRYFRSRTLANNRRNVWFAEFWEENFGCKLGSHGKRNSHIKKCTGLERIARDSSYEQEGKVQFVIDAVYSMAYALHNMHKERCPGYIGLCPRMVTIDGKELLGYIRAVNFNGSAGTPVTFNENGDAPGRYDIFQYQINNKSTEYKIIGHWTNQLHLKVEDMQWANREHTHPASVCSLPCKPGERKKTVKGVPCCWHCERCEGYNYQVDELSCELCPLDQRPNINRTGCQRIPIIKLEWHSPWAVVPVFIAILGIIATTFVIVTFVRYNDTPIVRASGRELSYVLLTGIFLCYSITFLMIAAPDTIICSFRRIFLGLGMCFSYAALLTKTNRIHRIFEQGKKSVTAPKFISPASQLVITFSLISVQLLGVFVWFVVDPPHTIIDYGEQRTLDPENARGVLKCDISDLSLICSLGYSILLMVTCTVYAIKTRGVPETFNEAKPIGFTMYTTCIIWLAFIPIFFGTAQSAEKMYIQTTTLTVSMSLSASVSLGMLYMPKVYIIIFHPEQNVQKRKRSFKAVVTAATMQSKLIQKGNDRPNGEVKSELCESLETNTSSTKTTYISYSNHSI
row,Structure (SMILES),z-score
1,COc1ccc(C(=O)C2CCN(S(=O)(=O)c3ccc4c(c3)OCCO4)CC2)cc1,0.21
2,O=C(O)c1ccccc1NN=C1CCCCC1,0.125
3,COc1ccc2nc3oc(C(=O)N4CCCCC4)cc3cc2c1,-0.277
4,N#C/C(=C\c1cn[nH]c1-c1ccccc1)C(=O)NC1CCCCCC1,-0.228
5,O=C(Cc1ccc(F)cc1)OCC(=O)c1cc2ccccc2o1,-0.195
6,CC1=CC(c2ccccc2)n2nc(N3C(=O)c4ccccc4C3=O)nc2N1 (configuration not stated),-0.139
7,Cc1cc2oc(=O)cc(C)c2cc1NC(=O)CCC(=O)O,1.3
8,CC(=O)c1c(N2CCN(C(=O)C3CCCO3)CC2)nc(=S)n(-c2ccccc2)c1C (configuration not stated),-0.0325
9,COc1ccc(-c2cc3ccccc3n2CC(O)CNCCO)cc1 (configuration not stated),0.0517
10,N#Cc1ccc(COC(=O)Cn2nnc(-c3ccccc3)n2)cc1,-0.843
11,O=C(CCS(=O)(=O)c1ccccc1)Nc1nc(-c2ccccn2)cs1,-0.105
12,Cc1cccc(C(=O)Oc2ccc(/C=N/NC(=O)c3ccccc3O)cc2)c1,-0.163
13,C/C(=N/Nc1nc(-c2ccc(Cl)cc2)cs1)c1cccs1,0.187
14,C=CCc1c(C)nc(N)[nH]c1=O,0.0155
15,COc1cccc(-c2cc(C(F)(F)F)n3nc(N)nc3n2)c1,-0.386
16,Cc1[nH]n(-c2ccccc2)c(=O)c1C(C[N+](=O)[O-])c1ccc(Br)cc1 (configuration not stated),0.135
17,CCOc1ccc(C(=O)N(Cc2ccc(N(C)C)cc2)C2CCS(=O)(=O)C2)cc1 (configuration not stated),0.0495
18,Cn1cccc1Cc1nnc(SCC(=O)NCC2CCCO2)n1CCc1ccccc1 (configuration not stated),0.779
19,CCOC(=O)C(CC)/C(C)=N/NC(=O)c1ccc([N+](=O)[O-])cc1 (configuration not stated),-0.221
20,COC(=O)c1sccc1NC(=O)CSc1cc(Cl)ccc1Cl,-0.165
21,Cc1ccsc1C(=O)NC(C)c1ccc2c(c1)OCO2 (configuration not stated),-0.314
22,O=C1c2ccccc2CC1(Cc1ccccc1)Cc1ccccc1,-0.201
23,CC1(C)NC(=O)N(CCCOc2ccc(Br)cc2Cl)C1=O,-0.26

row,Structure (SMILES),z-score
1,CC(C)N1C(=O)C2C(C(=O)NC3CCCCC3)C3C=CC2(O3)C1C(=O)NC1CCCC1 (configuration not stated),-0.218
2,C/C(Cc1ccccc1)=N\NC(=O)CNC(=O)c1ccc(Br)cc1,-0.0251
3,c1csc(-c2nn3c(C4COc5ccccc5O4)nnc3s2)c1 (configuration not stated),-0.697
4,O=C(NNS(=O)(=O)c1ccc2ccccc2c1)C1CCN(Cc2ccccc2)CC1,-0.161
5,OCc1cn(-c2ccccc2)nc1-c1ccc(-c2nn(-c3ccccc3)cc2CO)cc1,0.428
6,O=C(COC(=O)c1ccc(Br)cc1)NCc1ccccc1,-0.417
7,O=C(c1cccc(COc2ccc(Cl)cc2Cl)c1)N1CCN(c2ccccn2)CC1,0.679
8,O=C(OCCN(C1=NS(=O)(=O)c2ccccc21)c1ccccc1Cl)c1ccc(Cl)cc1,0.0751
9,COc1cccc(/C=C2/CN(C)CC3=C2OC(N)=C(C#N)C3c2cccc(OC)c2)c1 (configuration not stated),-0.724
10,Cc1ccc(CNC(=O)CN(c2cccc([N+](=O)[O-])c2)S(=O)(=O)c2ccccc2)cc1,-1.01
11,Clc1ccc(-c2csc3ncnc(Cl)c23)cc1,0.28
12,O=C(CN1CCC(Cc2ccccc2)CC1)NC(=O)NCc1ccccc1,0.0382
13,CCCc1[nH]nc2c1C(c1ccc(OC(=O)c3ccco3)cc1)C(C#N)=C(N)O2 (configuration not stated),0.63
14,O=c1[nH]c(=O)n(Cc2ccccc2)c2nc(-c3ccc(Oc4ccc(F)cc4)c([N+](=O)[O-])c3)n(CCO)c12,-0.038
15,CCCCN(C)C(=O)C1CCN(Cc2ccc(OCc3ccccc3)cc2)CC1,0.414
16,CCCCn1c(C(C)O)nc2ccccc21 (configuration not stated),-0.321
17,Cc1cc(C)n(C(=O)CNC(=O)COc2ccccc2)n1,0.214
18,O=C(Nc1ccc2c(c1)CCC2)c1cccc(S(=O)(=O)N2CCN(c3ccccc3)CC2)c1,-0.0939
19,Cc1ccc(N2C(N)=C(C#N)C(c3cccnc3)C3=C2CCCC3=O)cc1 (configuration not stated),1.05
20,O=C(O)CSc1c(-c2ccccc2)c2cc(Cl)ccc2[nH]c1=O,-0.401
21,O=C(c1ccc(Br)o1)N1CCN(c2ccc(F)cc2)CC1,0.331
22,Cc1nc2cc(NC(=O)N3CCCCC3)ccc2n1C,0.994
23,COc1cc2c(cc1NC(=S)NC(=O)/C=C/c1ccc(OC)c(OC)c1)oc1ccccc12,0.372

row,Structure (SMILES),z-score
1,COc1ccc(C)c2sc(N3CCCC3)nc12,-0.788
2,COc1cc(C)c(C)cc1S(=O)(=O)N1CCN(Cc2ccc3c(c2)OCO3)CC1,-0.615
3,CCn1c(=O)c2c(cnn2C)c2ccccc21,-0.227
4,COCCN1C(=O)c2ccc(C(=O)NCc3cccnc3)cc2C1=O,-0.0574
5,CCOCCCNS(=O)(=O)c1ccc2c(c1)CCN2C(C)=O,0.645
6,c1ccc2c(c1)NC1(CCCCCC1)n1c-2nc2ccccc21,-0.11
7,N#CCc1ccc(C(=O)c2ccccc2F)s1,-0.117
8,O=C1NC(=S)S/C1=C/c1ccc(N2CCOCC2)o1,0.253
9,COc1ccc(NC(=O)Cn2nnc(-c3ccccc3NC(=O)c3cccs3)n2)cc1,-0.484
10,Clc1ccc(OCc2nn3c(-c4ccccc4)nnc3s2)c(Cl)c1,-0.156
11,C=CCn1c(-c2ccc(S(=O)(=O)N3CCOCC3)cc2)csc1=Nc1ccccc1,0.017
12,COc1ccc(CC(NC(C)=O)C(=O)NC2CCN(S(=O)(=O)c3ccccc3)CC2)cc1OC (configuration not stated),-0.0462
13,Cc1cc(C)c(-n2nnnc2SC(C)C)c(C)c1,-0.84
14,CCN(CC)c1ccc(NC2=C(Cl)C(=O)c3ccccc3C2=O)cc1,-0.441
15,Cc1cc(C)nc(SCC(=O)NCc2ccco2)n1,0.232
16,CCOC(=O)C1CCN(C(=O)/C=C/c2ccc(OC)cc2)CC1,-0.702
17,CCOC(=O)c1ccc(NC(=S)N(CCCN2CCCCC2)Cc2ccco2)cc1,0.0993
18,COc1ccc(NC(=S)N(CCCN2CCCC2)Cc2cccs2)cc1,-0.236
19,Cc1sc2ncn3ncnc3c2c1C,0.0326
20,Cc1ccc(SCC(=O)O/N=C(\N)c2cccc([N+](=O)[O-])c2)cc1,-0.154
21,O=C(Cn1cc(C(F)(F)F)cc(Cl)c1=O)NCCc1ccccc1,-0.155
22,COc1cccc(C(C(=O)NC2CCCCC2)N(C(=O)Cc2cccs2)c2ccc(-n3cnnn3)c(OC)c2)c1 (configuration not stated),-0.139
23,CCC1(C)Cc2c(sc3nnn(CC(=O)Nc4ccc(C)cc4)c(=O)c23)CO1 (configuration not stated),-0.437

row,Structure (SMILES),z-score
1,O=C(CCCCCn1c(=O)[nH]c2ccsc2c1=O)NCc1ccc(F)cc1,-0.724
2,Cc1ccc2c(c1)nc(NCCO)n2C,-0.14
3,O=C(OCC(=O)c1c[nH]c2ccccc12)c1cccc(S(=O)(=O)N2CCCCCC2)c1,-0.277
4,Cc1cc(=O)n(-c2ccc3ccccc3n2)[nH]1,-0.135
5,COc1c(Br)cc(C(N)=O)cc1OCc1ccccc1,-0.231
6,CCC(=O)c1ccc2ncccc2c1,-0.00376
7,COC(=O)c1ccccc1NC(=O)CSc1ccccn1,-0.121
8,CCOc1c2ccc(C(=O)NC3CCCc4ccccc43)cc2nn1CC (configuration not stated),-0.225
9,Cc1cc(C)n(C(=O)c2ccc(S(=O)(=O)N3CCCC3)cc2)n1,0.0709
10,C/C(N)=C(/C#N)C(=O)COC(=O)c1cc(-c2cccc(Br)c2)nc2ccccc12,0.115
11,CC(C)C1N=C2c3ccccc3N=C(SCc3cc(=O)n4ccccc4n3)N2C1=O (configuration not stated),-0.316
12,COC(=O)C1(c2ccccc2)NC(c2cccs2)C2C(=O)N(c3ccccc3)C(=O)C21 (configuration not stated),-0.227
13,CC/C(=N\NC(=O)c1ccncc1)C12CC3CC(CC(C3)C1)C2,0.0155
14,O=C(CCN1CCCCCC1)Nc1ccccc1F,0.0555
15,O=C(NCc1ccccc1)c1c[nH]c2cc3c(cc2c1=O)OCCO3,-0.348
16,Cc1cccc(OC(C)c2ccnc3nc(/N=C/N(C)C)nn23)c1 (configuration not stated),-0.0572
17,O=C(Cc1ccccc1)Nc1cccc(N2CCCC2)c1,-0.184
18,CCn1cnc2cc(NCc3ccncc3)ccc21,-0.597
19,CCOc1ccc(NC(=O)NCCCN2CCCC2)cc1,-0.357
20,O=c1[nH]c2ccccc2nc1C(F)(F)C(F)F,-0.967
21,CCn1c(SCC(=O)Nc2nccs2)nnc1-c1cc2cccc(OC)c2o1,-0.59
22,Cc1ccc(CNc2nc3ccc(C)cc3n3cnnc23)cc1,0.269
23,COc1cccc(-c2cc(C(F)(F)F)nc(N3CCOCC3)n2)c1,0.839

row,Structure (SMILES),z-score
1,Cc1onc(-c2ccccc2Cl)c1C(=O)Nc1ccc(F)c(F)c1,-0.468
2,Cc1ccc(-n2nc3ccc(NC(=O)c4cccc([N+](=O)[O-])c4C)cc3n2)cc1,-0.288
3,COc1ccc(OC)c(NS(=O)(=O)c2ccc(SC)cc2)c1,-0.532
4,CCOc1ccccc1N(CC(=O)Nc1cccnc1)S(C)(=O)=O,0.287
5,CCC(C)NC(=O)c1c(N)n(/N=C/c2cccnc2)c2nc3ccccc3nc12 (configuration not stated),-0.365
6,CC1CN(C(=O)C2CC2)C(C)CN1C(=O)C1CC1 (configuration not stated),0.00492
7,COc1ccc(OC)c(-c2csc(NC(=O)CSc3ccccc3)n2)c1,-0.332
8,O=C(COC(=O)/C=C/c1ccc(Cl)cc1Cl)NCCC1=CCCCC1,0.107
9,Cc1ccc(CNC(=S)Nc2ccc(C)c([N+](=O)[O-])c2)cc1,0.255
10,O=C(Nc1ccc2c(c1)CCC2)c1ccccc1F,-0.203
11,CCCOc1ccc(C(CC(=O)O)NS(=O)(=O)c2ccc(NC(C)=O)cc2)cc1 (configuration not stated),-0.0811
12,COc1ccc(-c2nsc(SCC(=O)Nc3cc(C)on3)n2)cc1,-0.842
13,COc1ccc2c(C(F)(F)F)cc(=O)oc2c1C,-0.282
14,CCOC(=O)CC(=O)CSc1nc(-c2ccccc2)cc(-c2ccc(Cl)cc2)c1C#N,-0.159
15,O=[N+]([O-])c1cc2c(cc1/C=N/n1c(-c3ccccn3)n[nH]c1=S)OCO2,0.264
16,O=C(CSc1ccc(Cl)cc1)Nc1cccc(-c2nc3ncccc3o2)c1,-0.243
17,CSc1ccc(S(=O)(=O)Nc2ccc(F)cc2)cc1,0.444
18,CCOC(=O)C1CCN(S(=O)(=O)c2ccc(CC)cc2)CC1,0.476
19,O=C(C1CCCCC1)N1CCN(c2ncccn2)CC1,0.498
20,COC(=O)C1=C(C(=O)OC)C(c2cc(Br)ccc2O)c2sc(=O)[nH]c2S1 (configuration not stated),0.749
